Ki data for 15 compounds are collected here from patent US7595299B2, “Peptides as NS3-serine protease inhibitors of hepatitis C virus” (priority 2000, dated 2009).

The experiment concerns the target Recombinant heterodimeric HCV NS3/NS4A protease (strain 1a) (Hepatitis C virus genotype 1a, UniProt P27958). The experiment in a line: biochemical. As for the experimental part:
Spectrophotometric Assay: Spectrophotometric assay for the HCV serine protease was performed on the inventive compounds by following the procedure described by R. Zhang et al, Analytical Biochemistry, 270 (1999) 268-275, the disclosure of which is incorporated herein by reference. The assay based on the proteolysis of chromogenic ester substrates is suitable for the continuous monitoring of HCV NS3 protease activity. The substrates were derived from the P side of the NS5A-NS5B junction sequence (Ac-DTEDVVX(Nva), where X=A or P) whose C-terminal carboxyl groups were esterified with one of four different chromophoric alcohols (3- or 4-nitrophenol, 7-hydroxy-4-methyl-coumarin, or 4-phenylazophenol). […] Materials and Methods:
Materials: Chemical reagents for assay related buffers were obtained from Sigma Chemical Company (St. Louis, Mo.). Reagents for peptide synthesis were from Aldrich Chemicals, Novabiochem (San Diego, Calif.), Applied Biosystems (Foster City, Calif.) and Perseptive Biosystems (Framingham, Mass.). Peptides were synthesized manually or on an automated ABI model 431A synthesizer (from Applied Biosystems). UV/VIS Spectrometer model LAMBDA 12 was from Perkin Elmer (Norwalk, Conn.) and 96-well UV plates were obtained from Corning (Corning, N.Y.). The prewarming block was from USA Scientific (Ocala, Fla.) and the 96-well plate vortexer was from Labline Instruments (Melrose Park, Ill.). A Spectramax Plus microtiter plate reader with monochrometer was obtained from Molecular Devices (Sunnyvale, Calif.).
Protein concentrations were determined by the Biorad dye method using recombinant HCV protease standards previously quantified by amino acid analysis. Prior to assay initiation, the enzyme storage buffer (50 mM sodium phosphate pH 8.0, 300 mM NaCl, 10% glycerol, 0.05% lauryl maltoside and 10 mM DTT) was exchanged for the assay buffer (25 mM MOPS pH 6.5, 300 mM NaCl, 10% glycerol, 0.05% lauryl maltoside, 5 μM EDTA and 5 μM DTT) utilizing a Biorad Bio-Spin P-6 prepacked column.
Substrate Synthesis and Purification: The synthesis of the substrates was done as reported by R. Zhang et al, (ibid.) and was initiated by anchoring Fmoc-Nva-OH to 2-chlorotrityl chloride resin using a standard protocol (K. Barlos et al, Int. J. Pept. Protein Res., 37 (1991), 513-520). The peptides were subsequently assembled, using Fmoc chemistry, either manually or on an automatic ABI model 431 peptide synthesizer. […] The combined filtrate and DCM wash was evaporated azeotropically (or repeatedly extracted by aqueous Na2CO3 solution) to remove the acid used in cleavage. The DCM phase was dried over Na2SO4 and evaporated.
The ester substrates were assembled using standard acid-alcohol coupling procedures (K. Holmber et al, Acta Chem. Scand., B33 (1979) 410-412). Peptide fragments were dissolved in anhydrous pyridine (30-60 mg/ml) to which 10 molar equivalents of chromophore and a catalytic amount (0.1 eq.) of para-toluenesulfonic acid (pTSA) were added. Dicyclohexylcarbodiimide (DCC, 3 eq.) was added to initiate the coupling reactions. […] Pyridine solvent was evaporated under vacuum and further removed by azeotropic evaporation with toluene. The peptide ester was deprotected with 95% TFA in DCM for two hours and extracted three times with anhydrous ethyl ether to remove excess chromophore. The deprotected substrate was purified by reversed phase HPLC on a C3 or C8 column with a 30% to 60% acetonitrile gradient (using six column volumes).

Where [1] appears, read: HCV protease continuous assay, Table 1, read-out: Ki* Range.

Read-outs that look alike come from different tables or passages of the source. Starred links: 1 amine or outer side, 2 acyl side, 3 side chain; linkers in the order of their positions; H or OH if unused. Non-standard residues stand in square brackets, D forms with d. Residues, ends and D or L forms follow the SMILES beside them. ξ: configuration not given here. *: point of attachment. ξβ3hAbu(2-oxo,5,5,5-F3) = O=C(C(=O)[*:2])C(CC(F)(F)F)N[*:1]; Phe(3,4,5-F3) = N[C@@H](Cc1cc(F)c(F)c(F)c1)C(=O)O; Phe(3-CF3) = N[C@@H](Cc1cccc(C(F)(F)F)c1)C(=O)O; Phe(F5) = N[C@@H](Cc1c(F)c(F)c(F)c(F)c1F)C(=O)O; Succinyl(3ξ-Ph) = O=C(O)C(CC(=O)*)c1ccccc1; Phe(4-Br) = N[C@@H](Cc1ccc(Br)cc1)C(=O)O; 2Nal = N[C@@H](Cc1ccc2ccccc2c1)C(=O)O; Isobutyloxycarbonyl = CC(C)COC(=O)*; X8 = O=C(OCC12CC3CC(CC(C3)C1)C2)*; X4 = CCCC(N[*:1])C(=O)C(=O)[*:2]; hPhe = N[C@@H](CCc1ccccc1)C(=O)O; Chg = N[C@H](C(=O)O)C1CCCCC1; Phg = N[C@H](C(=O)O)c1ccccc1; X21 = CC1C2CCC(C2)C1COC(=O)*; ξPhg = NC(C(=O)O)c1ccccc1; Boc = CC(C)(C)OC(=O)*; OBn = c1ccc(CO*)cc1

For the compound `CCCC(NC(=O)[C@H](CC(C)C)NC(=O)[C@@H](NC(=O)OCC1C2CCC(C2)C1C)C1CCCCC1)C(=O)C(=O)NCC(=O)N[C@H](C(N)=O)c1ccccc1` (stereo partly drawn) [Example 2] (X21-[Chg]L[X4]G[Phg]-NH2), the Ki (in general, the dissociation constant of the complex between target and ligand, obtained from inhibition or displacement) under setting [1] lay within 101 to 1000 nM.

`CCCC(NC(=O)[C@H](CC(C)C)NC(=O)[C@@H](NC(=O)OCC12CC3CC(CC(C3)C1)C2)C1CCCCC1)C(=O)C(=O)NCC(=O)N[C@H](C(N)=O)c1ccccc1` (stereo partly drawn) [Example 3] (X8-[Chg]L[X4]G[Phg]-NH2): the Ki under setting [1] is above 1000 nM.

Consider `CCCC(NC(=O)[C@H](CCc1ccccc1)NC(=O)[C@@H](NC(=O)OC(C)(C)C)C1CCCCC1)C(=O)C(=O)NCC(=O)N[C@H](C(N)=O)c1ccccc1` (stereo partly drawn) [Example 4] (Boc-[Chg][hPhe][X4]G[Phg]-NH2), for which the inhibition constant (Ki) under setting [1] was above 1000 nM.

With `CCCC(NC(=O)[C@H](CC(C)C)NC(=O)[C@@H](NC(=O)OC(C)(C)C)C1CCCCC1)C(=O)C(=O)NCC(=O)N[C@H](C(N)=O)c1ccccc1` (stereo partly drawn) [Example 5] (Boc-[Chg]L[X4]G[Phg]-NH2), the Ki under setting [1] lay within 101 to 1000 nM.

`CCCC(NC(=O)[C@H](Cc1ccc(Br)cc1)NC(=O)[C@@H](NC(=O)OC(C)(C)C)C1CCCCC1)C(=O)C(=O)NCC(=O)NC(C(N)=O)c1ccccc1` (stereo partly drawn) [Example 6] (Boc-[Chg][Phe(4-Br)][X4]G[ξPhg]-NH2): under setting [1], the Ki is above 1000 nM.

On to `CCCC(NC(=O)[C@H](Cc1c(F)c(F)c(F)c(F)c1F)NC(=O)[C@@H](NC(=O)OC(C)(C)C)C1CCCCC1)C(=O)C(=O)NCC(=O)NC(C(N)=O)c1ccccc1` (stereo partly drawn) [Example 7] (Boc-[Chg][Phe(F5)][X4]G[ξPhg]-NH2), for which the Ki under setting [1] was above 1000 nM.

In the case of `CCCC(NC(=O)C(CCN1C(=O)c2ccccc2C1=O)NC(=O)C(NC(=O)OC(C)(C)C)C1CCCCC1)C(=O)C(=O)NCC(=O)N[C@H](C(N)=O)c1ccccc1` (stereo partly drawn) [Example 8], the Ki under setting [1] is above 1000 nM.

In the case of `CCCC(NC(=O)[C@H](Cc1ccc2ccccc2c1)NC(=O)[C@@H](NC(=O)OC(C)(C)C)C1CCCCC1)C(=O)C(=O)NCC(=O)NC(C(N)=O)c1ccccc1` (stereo partly drawn) [Example 9] (Boc-[Chg][2Nal][X4]G[ξPhg]-NH2), the Ki under setting [1] was above 1000 nM.

As for `CCCC(NC(=O)[C@H](Cc1cc(F)c(F)c(F)c1)NC(=O)[C@@H](NC(=O)OC(C)(C)C)C1CCCCC1)C(=O)C(=O)NCC(=O)NC(C(N)=O)c1ccccc1` (stereo partly drawn) [Example 10] (Boc-[Chg][Phe(3,4,5-F3)][X4]G[ξPhg]-NH2), under setting [1], the Ki is above 1000 nM.

With `CCCC(NC(=O)[C@H](CC(C)C)NC(=O)[C@@H](NC(=O)OC(C)(C)C)C1CCCCC1)C(=O)C(=O)NCC(=O)N[C@H](C(=O)O)c1ccccc1` (stereo partly drawn) [Example 11] (Boc-[Chg]L[X4]G[Phg]-OH), the Ki under setting [1] is below 100 nM.

Take `CCCC(NC(=O)[C@H](Cc1cccc(C(F)(F)F)c1)NC(=O)[C@@H](NC(=O)OC(C)(C)C)C1CCCCC1)C(=O)C(=O)NCC(=O)NC(C(N)=O)c1ccccc1` (stereo partly drawn) [Example 12] (Boc-[Chg][Phe(3-CF3)][X4]G[ξPhg]-NH2): the Ki was above 1000 nM.

For `CCCC(NC(=O)[C@H](Cc1cccc2c1CCCC2)NC(=O)[C@@H](NC(=O)OC(C)(C)C)C1CCCCC1)C(=O)C(=O)NCC(=O)N[C@H](C(=O)O)c1ccccc1` (stereo partly drawn) [Example 13], under setting [1], the inhibitory constant (Ki) was in the range of 101 to 1000 nM.

Take `CC(C)COC(=O)N[C@H](C(=O)N[C@@H](CC(C)C)C(=O)NC(CC(F)(F)F)C(=O)C(=O)NCC(=O)N[C@H](C(N)=O)c1ccccc1)C1CCCCC1` (stereo partly drawn) [Example 14] (Isobutyloxycarbonyl-[Chg]L[ξβ3hAbu(2-oxo,5,5,5-F3)]G[Phg]-NH2): the Ki under setting [1] is above 1000 nM.

As to `CCCC(NC(=O)[C@H](CC(C)C)NC(=O)[C@@H](NC(=O)CC(C(=O)O)c1ccccc1)C1CCCCC1)C(=O)C(=O)NCC(=O)N[C@H](C(=O)OCc1ccccc1)c1ccccc1` (stereo partly drawn) [Example 15] ({Succinyl(3ξ-Ph)}-[Chg]L[X4]G[Phg]-OBn), the Ki under setting [1] lay within 101 to 1000 nM.

As for `CCCC(NC(=O)[C@H](CC(C)C)NC(=O)[C@@H](NC(=O)CC(C(=O)O)c1ccccc1)C1CCCCC1)C(=O)C(=O)NCC(=O)N[C@H](C(=O)O)c1ccccc1` (stereo partly drawn) [Example 16] ({Succinyl(3ξ-Ph)}-[Chg]L[X4]G[Phg]-OH), the Ki under setting [1] is below 100 nM.
